Data reported in the supplement of paper PMC9446081.
Hit rate of the full screen: of about 39,000 compounds, about 220 (0.56%) showed activity. The list shows a part of the results.

system: Escherichia coli K-12 BW25113; assay: relative growth (OD600 normalised to plate interquartile mean) (fraction); higher = less growth inhibition, active = 0.2 or less; details: 50 µM; LB; incubation time: overnight (16-24 h)
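Also: static incubation at 37 °C against the wild-type strain, values averaged over two biological replicates.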

SMILES	relative growth
C[C@@H]1CCCCO[C@H](CN(C)S(=O)(=O)c2cn(C)cn2)[C@H](C)CN([C@H](C)CO)C(=O)c2cc(NS(C)(=O)=O)ccc2O1	inactive: 1.02
C[C@H](CO)N1C[C@H](C)[C@@H](CN(C)CC2CCCCC2)OCCCC[C@H](C)Oc2ccc(NC(=O)C3CCCCC3)cc2C1=O	inactive: 0.985
C[C@H](CO)N1C[C@H](C)[C@H](CN(C)C(=O)C2CCCCC2)OCCCC[C@H](C)Oc2ccc(NC(=O)Nc3ccc(F)cc3)cc2C1=O	inactive: 1.02
CCC(C(C)O)n1ncn(-c2ccc(N3CCN(c4ccc(OCC5COC(Cn6cncn6)(c6ccc(F)cc6F)C5)cc4)CC3)cc2)c1=O (stereo unspecified)	inactive: 0.947
C[C@H](CO)N1C[C@H](C)[C@H](CN(C)Cc2ccncc2)Oc2ccc(NC(=O)c3ccncc3)cc2CC1=O	inactive: 1.03
C[C@H]1CN([C@@H](C)CO)C(=O)Cc2cc(NS(=O)(=O)c3cn(C)cn3)ccc2O[C@@H]1CN(C)S(=O)(=O)c1ccccc1	inactive: 1.02
COc1ccc(NC(=O)Nc2ccc3c(c2)C(=O)N([C@H](C)CO)C[C@@H](C)[C@@H](CN(C)S(=O)(=O)c2ccc(F)cc2)OCCCC[C@H](C)O3)cc1	inactive: 1.03
COc1ccc(CN(C)C[C@@H]2Oc3c(NC(=O)Nc4cccc5ccccc45)cccc3C(=O)N([C@H](C)CO)C[C@@H]2C)cc1	inactive: 1.02
C[C@H](CO)N1C[C@H](C)[C@H](CN(C)S(=O)(=O)c2ccccc2)Oc2ccc(NC(=O)CCC(F)(F)F)cc2CC1=O	inactive: 0.999
COCC#Cc1cnc2c(c1)C(=O)N([C@@H](C)CO)C[C@@H](C)[C@@H](CN(C)C(=O)CN1CCOCC1)O2	inactive: 1.01
Cc1ccc(S(=O)(=O)Nc2ccc3c(c2)CC(=O)N([C@H](C)CO)C[C@@H](C)[C@@H](CN(C)S(C)(=O)=O)O3)cc1	inactive: 0.986
COc1ccc(-c2cnc3c(c2)C(=O)N([C@@H](C)CO)C[C@H](C)[C@H](CN(C)C(=O)C2CCOCC2)O3)cc1	inactive: 1
O=C(C1=C[C@H](c2ccc3c(c2)Cc2ccccc2-3)C[C@H](OCc2ccc(CO)cc2)O1)N1CCN(Cc2ccc3c(c2)OCO3)CC1	inactive: 1.01
CC(C)NC(=O)N(C)C[C@@H]1OCCCC[C@H](C)Oc2ccc(NC(=O)Nc3ccc(C(F)(F)F)cc3)cc2C(=O)N([C@@H](C)CO)C[C@@H]1C	inactive: 0.995
COC(=O)c1nnc(N)[nH]1	inactive: 0.994
C[C@@H]1CCCCO[C@H](CN(C)S(=O)(=O)c2ccc(F)cc2)[C@H](C)CN([C@H](C)CO)C(=O)c2cc(NS(=O)(=O)c3cn(C)cn3)ccc2O1	inactive: 0.984
